Measured values as given in paper PMC4336329 (PLoS ONE, 2015).
The whole screen tested about 310,000 compounds, of which about 14,000 (4.5%) showed an effect of 50% or more. The effect is printed as a negative number. Some of the results follow.

Each compound was assayed against human ether-à-go-go-related gene (hERG) potassium channel (human, UniProt Q12809) (assay: primary screen, population patch clamp on CHO cells stably expressing hERG).
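Note: peak tail current of the secondary pulse compared with the same well before compound.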

human ether-à-go-go-related gene (hERG) potassium channel, sequence (Q12809 whole entry, looked up): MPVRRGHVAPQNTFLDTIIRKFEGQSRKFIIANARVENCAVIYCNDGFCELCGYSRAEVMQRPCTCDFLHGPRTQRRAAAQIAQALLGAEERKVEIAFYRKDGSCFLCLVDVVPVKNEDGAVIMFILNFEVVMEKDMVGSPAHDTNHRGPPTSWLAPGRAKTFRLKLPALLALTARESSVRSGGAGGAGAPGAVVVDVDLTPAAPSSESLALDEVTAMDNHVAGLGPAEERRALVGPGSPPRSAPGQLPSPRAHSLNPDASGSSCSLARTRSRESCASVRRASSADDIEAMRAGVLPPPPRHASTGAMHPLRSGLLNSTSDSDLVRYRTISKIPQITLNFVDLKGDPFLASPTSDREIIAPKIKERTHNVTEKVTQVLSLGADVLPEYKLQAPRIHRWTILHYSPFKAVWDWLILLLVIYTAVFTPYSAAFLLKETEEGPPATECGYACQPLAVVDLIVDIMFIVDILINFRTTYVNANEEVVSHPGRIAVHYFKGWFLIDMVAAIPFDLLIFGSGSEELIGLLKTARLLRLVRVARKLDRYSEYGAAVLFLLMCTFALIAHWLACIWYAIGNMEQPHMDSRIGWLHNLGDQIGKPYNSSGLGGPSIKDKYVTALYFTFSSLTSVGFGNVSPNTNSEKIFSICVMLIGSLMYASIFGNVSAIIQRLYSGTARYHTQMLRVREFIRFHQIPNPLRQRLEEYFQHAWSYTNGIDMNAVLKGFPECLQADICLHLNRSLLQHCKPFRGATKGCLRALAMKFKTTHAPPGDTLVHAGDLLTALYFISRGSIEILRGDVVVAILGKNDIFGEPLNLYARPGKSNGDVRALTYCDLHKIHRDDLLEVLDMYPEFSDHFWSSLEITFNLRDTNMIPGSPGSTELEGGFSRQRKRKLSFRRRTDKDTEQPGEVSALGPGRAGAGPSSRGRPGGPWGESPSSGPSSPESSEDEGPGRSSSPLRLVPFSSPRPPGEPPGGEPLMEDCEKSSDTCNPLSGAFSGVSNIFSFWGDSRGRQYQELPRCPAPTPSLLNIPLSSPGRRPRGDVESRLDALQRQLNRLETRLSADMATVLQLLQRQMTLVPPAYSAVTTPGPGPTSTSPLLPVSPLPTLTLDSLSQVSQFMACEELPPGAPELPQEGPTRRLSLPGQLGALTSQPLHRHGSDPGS

Row | SMILES | hERG current change (%, negative = inhibition) at 10uM [%]
1 | O=C(C1CC1)N1CCN=C1SCc1ccccc1Cl | -11.2
2 | O=C(O)CSCC(=O)Nc1cccc2ccccc12 | 1.12
3 | Cc1cc(=O)oc2cc(OCC(=O)N(C)C3CCS(=O)(=O)C3)c(Cl)cc12 (stereo not shown) | 12.5
4 | NC(=O)CC(NC(=O)c1ccccc1)c1ccc(NCc2ccccn2)c([N+](=O)[O-])c1 (stereo not shown) | 5.65
5 | CCc1ccc(N(CC(=O)NC2CC2)S(=O)(=O)c2ccc(C)cc2)cc1 | 7.25
6 | O=C(COc1cccnc1[N+](=O)[O-])Nc1ccc(Cl)c(S(=O)(=O)N2CCOCC2)c1 | -44.5
7 | COc1ccc(CC(=O)N2CCN(C)CC2)cc1OC.Cl | 17.7
8 | Cc1cc(C)n(-c2nc(NCCCO)c3c4c(sc3n2)CCCC4)n1 | -17.9
9 | O=C(N/N=C/c1cccc(F)c1)c1ccc(Cl)cc1 | 16.4
10 | Cc1ccccc1OCCCC(=O)Nc1nncs1 | -22.9
11 | Cc1ccccc1OCC(O)Cn1c(NCc2ccco2)nc2c1c(=O)[nH]c(=O)n2C (stereo not shown) | 4.8
12 | Cc1c(C)n(O)c2ccc3nonc3c12 | 7.55
13 | COc1cccc(/C=N/NC(=O)CO/N=C(\C)c2cccs2)c1OC | 4.14
14 | C#CCn1c(=NC(=O)c2sc3ccccc3c2Cl)sc2cc(S(N)(=O)=O)ccc21 | 5.13
15 | CCOC(=O)C1=C(C)N(C)C(=S)NC1c1c(OCC)ccc2ccccc12 (stereo not shown) | 6.65
16 | Cl.O=C(CN1CCC(C(=O)c2cccc(F)c2)CC1)NCc1cccs1 | -36.1
17 | CCCCN1C(=O)C(=O)N(CC(=O)N2N=C3/C(=C/c4ccco4)CCCC3C2c2ccco2)C1=O (stereo not shown) | -75
18 | Cc1c(NC(=S)NC(C)(C)C)c(=O)n(-c2ccccc2)n1C | 14.1
19 | CCN(CC)S(=O)(=O)c1ccc(N2CCCC2)c(NS(=O)(=O)c2cccs2)c1 | -10.9
20 | CCOC(=O)C1CCCN(Cc2ccc(-c3ccccc3)cc2)C1 (stereo not shown) | -10.5
21 | CCOCCCNC(=O)c1cn(C)c2ccc(S(=O)(=O)N3CCCCC3)cc2c1=O | 1.79
22 | Cc1cccc(NS(=O)(=O)c2cc(C(=O)N3CCc4ccccc4C3)ccc2Cl)c1C | -8.82

Row | SMILES | hERG current change (%, negative = inhibition) at 10uM [%]
23 | COc1ccc(-c2noc(N3CCC(C(=O)NCCCN4CC(C)CC(C)C4)CC3)n2)cc1 (stereo not shown) | -18.1
24 | CCOc1cc(CNCc2ccc3c(c2)OCO3)ccc1OC.Cl | -24.2
25 | CS(=O)(=O)N(CCc1ccccc1)CC(=O)NCc1ccccn1 | 5.18
26 | O=C(CSc1nc(O)cc(=O)n1C1CCCC1)Nc1cccc(Cl)c1Cl | 1.51
27 | Cc1cccn2c(=O)c3cc(C(=O)N4COCC4(C)C)n(Cc4ccccc4)c3nc12 | 1.23
28 | CC(=O)c1cccc(NC(=S)NC(=O)Cc2ccccc2)c1 | -2.33
29 | O=C(c1ccc(S(=O)(=O)N2CCOCC2)cc1)N(Cc1ccco1)Cc1cccs1 | -44.5
30 | CCOC(=O)c1[nH]c(C)c(C(=O)N2CCN(C(=O)c3ccco3)CC2)c1C | 8.88
31 | O=C(NCCc1ccccc1)c1cnc2ccccn2c1=O | -12
32 | Cc1c(C(=O)C(=O)NCC2CCCO2)c2ccccc2n1C (stereo not shown) | 16.6
33 | COc1ccc(S(=O)(=O)NCc2ccc3c(c2)OCO3)cc1OC | 7.39
34 | COc1ccc(F)c(CN2CCC(N3CCC(C(=O)N4CCOCC4)CC3)CC2)c1 | -13
35 | CCOC(=O)C1CCN(C(=O)c2ccc3c(c2)NC(=O)/C(=C\c2cccc(C)c2)S3)CC1 | -2.12
36 | O=C(Nc1cc(S(=O)(=O)N2CCOCC2)ccc1N1CCOCC1)C1CCCO1 (stereo not shown) | -3.99
37 | Cc1cc2c(cc1S(=O)(=O)NCc1ccccc1)OCC(=O)N2 | -22.8
38 | COc1ccccc1NC(=O)CCC(=O)O | 23.4
39 | Cc1nn(CC(=O)c2ccccc2Cl)c(C)c1[N+](=O)[O-] | -10.8
40 | Cc1ccc(Cn2c(N)c(S(=O)(=O)c3cccs3)c3nc4ccccc4nc32)cc1 | 6.56
41 | COC(=O)C1C2C=CC3(CN(c4cccc(C)c4)C(=O)C13)O2 (stereo not shown) | 21.7
42 | Cc1ccc(-c2nnc(Sc3nc4ccccc4o3)c3ccccc23)cc1 | 6.38
43 | Cc1nn(CCCC(=O)NCc2ccccc2Cl)c(=O)c2nccn12 | 11.3
44 | CCCNC(=S)Nc1c(C)n(C)n(-c2ccccc2)c1=O | 9.19

Row | SMILES | hERG current change (%, negative = inhibition) at 10uM [%]
45 | CCCc1cc(=O)[nH]c(SCC(=O)CSc2nc(CCC)cc(=O)[nH]2)n1 | 11
46 | CCCCNC(=O)c1ccccc1Cl | 21.5
47 | N/C(Cn1cncn1)=N\OC(=O)c1ccc(Cl)cc1Cl | -9.29
48 | CC(=O)NC1C(OC(=O)/C=C/c2ccccc2)OC(COC(C)=O)C(OC(C)=O)C1OC(C)=O (stereo not shown) | -21.8
49 | CCCc1ccc(C(=O)[C@@H]2[C@@H](C(C)=O)N3c4ccc(F)cc4C=C[C@@H]3[C@@]23C(=O)Nc2ccccc23)cc1 | 4.86
50 | CC(NC(=O)C(=O)N1CCCCC1)C(c1cccs1)N1CCN(Cc2ccccc2)CC1 (stereo not shown) | -4.2
51 | O=C1CCC/C(=N/NC(=O)c2cc(NS(=O)(=O)c3cccs3)cc(NS(=O)(=O)c3cccs3)c2)C1 | 15.7
52 | CCOC(=O)C1(CCc2ccccc2)CCN(Cc2nccn2CC)CC1 | -66.2
53 | COC(=O)CC1C(=O)NCCN1C(=O)CSc1nnnn1-c1ccc(Cl)cc1 (stereo not shown) | -8.68
54 | COc1ccc(OCCC(=O)OCC(=O)NCc2ccccc2OC)cc1 | -25.7
55 | CC(C)(C)[C@@H]1C=C(C(N)=O)O[C@H](OCc2ccc(CO)cc2)C1 | -3.3
56 | Cc1ccc(CN2CCNC2=O)cc1 | -7.3
57 | O=C(OCC(=O)N1CCCc2ccccc21)c1cc(Br)ccc1O | 12.4
58 | CCn1cc(CN2CCC(C(=O)Nc3cccc(-c4cccc(OC)c4)c3)CC2)c(C)n1 | -46.3
59 | CCOC(=O)CNC(=O)COc1coc(CN2CCN(Cc3ccccc3)CC2)cc1=O | -9.71
60 | COc1ccc(CCN(C)Cc2nc(Cc3ccc(OC)c(OC)c3)no2)cc1OC | 0.332
61 | Cc1ccc(C)c(NC(=S)NCc2ccc3c(c2)OCO3)c1 | 16.1
62 | CC1CCN(CCCNc2cc(NCCO)c([N+](=O)[O-])c3nonc23)CC1 | 19
63 | CCN(Cc1ccccc1)C(=O)c1ccc2c(=O)n3c(nc2c1)CCC3 | -10.7
64 | CN1CCC(N(C)C(=S)NCCc2ccccc2)CC1 | -31
65 | CCOc1ccc(-n2c(Cc3cc(=O)[nH]c(=O)[nH]3)nnc2SCc2cccnc2)cc1 | 11.4
66 | Cc1ccc(C)c(Nc2cc(C)nc(-c3ccccc3O)n2)c1 | 15

Row | SMILES | hERG current change (%, negative = inhibition) at 10uM [%]
67 | C=CCC(Nc1ccco1)c1ccccc1.Cl (stereo not shown) | -7.03
68 | O=C(/C=C/Nc1ccc(S(=O)(=O)Nc2cnc3ccccc3n2)cc1)c1cccnc1 | -12.9
69 | Cc1ccc(CNC(=O)c2nnc(Cc3ccc(Cl)cc3)o2)cc1 | 7.49
70 | Cc1cc([N+](=O)[O-])nn1CC(=O)N/N=C/c1ccc(O)cc1O | -3.52
71 | Clc1ccc(-c2nc3ccc(Cl)cn3c2CN2CCOCC2)cc1 | -13.2
72 | NNC(=O)C1c2ccccc2Oc2ccccc21 | 20.2
73 | COc1ccc(CNC(=O)C2CSC(c3ccc(OC)cc3)N2C(C)=O)cc1 (stereo not shown) | -13.5
74 | Cc1cc(OCc2nc(-c3ccc(NC(=O)c4cccnc4)cc3)no2)ccc1Cl | 10.7
75 | COc1ccc(/C=C/C(=O)c2ccc(NC(=O)c3cccs3)cc2)cc1OC | -3.14
76 | Cc1nc2c(nnn2Cc2ccccc2Cl)c(=O)[nH]1 | 13.5
77 | O=C(NCCN1CCOCC1)C(=O)NCc1ccc2c(c1)OCO2 | 22.8
78 | O=c1cc(-c2ccc(Cl)cc2)[nH]c2ccccc12 | 5.97
79 | O=C1CCN(Cc2ccc(Br)cc2)CCN1[C@H](CO)Cc1ccccc1 | -10.4
80 | CCn1ncc(/C=C/C(=O)NCc2cn(C)nc2C)c1C | -3.66
81 | CCN(CC)S(=O)(=O)c1cc(NC(=O)CSc2nnc(-c3cccs3)o2)ccc1C | -14.3
82 | COCCCn1c(-c2cccs2)nc2nc3ccccc3nc21 | -7.93
83 | CCCCCn1c(CN2CCN(c3cc(Cl)ccc3C)CC2)nc2c1c(=O)[nH]c(=O)n2C | -7.77
84 | CCOC(=O)C1=NN(C(C)=O)C2C(=O)N(CC)C(=O)C12 (stereo not shown) | 15.6
85 | Cc1ccc([N+](=O)[O-])c(OCCN2C(=O)NC(C)(C)C2=O)c1 | 30.6
86 | C=CCOc1ccc(C2C(C(=O)c3ccco3)=C(O)C(=O)N2CCCN(CC)CC)cc1 (stereo not shown) | 9.98
87 | CC(NC(=O)c1cccnc1)C(=O)N1CCCCC1 (stereo not shown) | 0.941
88 | COc1ccc(N2CC(C(=O)Nc3nnc(SCCC4OCCO4)s3)CC2=O)cc1 (stereo not shown) | 17.7
